Source: US11040047B2, “Prodrugs of nucleoside phosphonates” (Katholieke Universiteit Leuven, priority 2017, dated 2021)

Tests used:
Test in all cases: microbe, parasite or virus in culture
[1] = system: thymidine kinase-deficient (TK−) HSV-1 KOS strain resistant to ACV (ACVr); type: cell-based, herpes simplex virus 1; conditions: Human alphaherpesvirus 1, HEL, read-out: Antiviral activity EC50 HSV-1 KOS ACVr strain
[2] = system: herpes simplex virus 2 (HSV-2) strain G; conditions: Human alphaherpesvirus 2, HEL, read-out: Antiviral activity EC50 HSV-2 G strain
[3] = system: herpes simplex virus 1 (HSV-1) strain KOS; conditions: Human alphaherpesvirus 1, HEL, read-out: Antiviral activity EC50 HSV-1 KOS strain

| SMILES | EC50 [1] | EC50 [2] | EC50 [3] |
| --- | --- | --- | --- |
| CCCCCOC(=O)CC[C@H](NP1(=O)CO[C@@H](Cn2cnc3c(N)ncnc32)CO1)C(=O)OCCCCC (stereo partly drawn) [Example 15, Diamyl {(5S)-5-[(6-amino-9H-purin-9-yl)methyl]-2-oxido-1,4,2-dioxaphosphinan-2-yl}-L-glutamate] | 1.2 nM | 2.5 nM | 1.2 nM |
| CCCCCOC(=O)C[C@H](NP1(=O)CO[C@@H](Cn2cnc3c(N)ncnc32)CO1)C(=O)OCCCCC (stereo partly drawn) [Example 8, Diamyl {(5S)-5-[(6-amino-9H-purin-9-yl)methyl]-2-oxido-1,4,2-dioxaphosphinan-2-yl}-L-aspartate] | 0.73 nM | 2 nM | 3.2 nM |
| CCCCCOC(=O)C[C@H](NP1(=O)CO[C@H](Cn2cnc3c(N)ncnc32)CO1)C(=O)OCCCCC (stereo partly drawn) [Example 9, Diamyl {(5R)-5-[(6-amino-9H-purin-9-yl)methyl]-2-oxido-1,4,2-dioxaphosphinan-2-yl}-L-aspartate] | 76 nM | 110 nM | 210 nM |
| CCCCCOC(=O)[C@@H](NP(=O)(CO[C@H](CO)Cn1cnc2c(N)ncnc21)N[C@H](C(=O)OCCCCC)C(C)C)C(C)C [Example 19, diamyl 2,2′-((((((S)-1-(6-amino-9H-purin-9-yl)-3-hydroxypropan-2-yl)oxy)methyl)phosphoryl)bis(azanediyl))(2S,2′S)-bis(3-methylbutanoate)] | 0.9 nM | 2.8 nM | 2.3 nM |
| Nc1nc2c(ncn2CCC(CO)CO)c(=O)[nH]1 [Penciclovir, reference compound] | > 79000 nM | 840 nM | 480 nM |
| CCCCCOC(=O)C[C@H](NP1(=O)CO[C@H](Cn2ccc(N)nc2=O)CO1)C(=O)OCCCCC (stereo partly drawn) [Example 11, Diamyl {(5R)-5-[(4-amino-2-oxopyrimidin-1(2H)-yl)methyl]-2-oxido-1,4,2-dioxaphosphinan-2-yl}-L-aspartate] | 1580 nM | 3450 nM | 2420 nM |
| CCCCCOC(=O)[C@H](CC(C)C)NP1(=O)CO[C@@H](Cn2cnc3c(N)ncnc32)CO1 (stereo partly drawn) [Example 17, Amyl {(5S)-5-[(6-amino-9H-purin-9-yl)methyl]-2-oxido-1,4,2-dioxaphosphinan-2-yl}-L-leucinate] | 1.3 nM | 1.9 nM | 2 nM |
| CCCCCOC(=O)C[C@H](NP1(=O)CO[C@@H](Cn2ccc(N)nc2=O)CO1)C(=O)OCCCCC (stereo partly drawn) [Example 10, Diamyl {(5S)-5-[(4-amino-2-oxopyrimidin-1(2H)-yl)methyl]-2-oxido-1,4,2-dioxaphosphinan-2-yl}-L-aspartate] | 7.7 nM | 13 nM | 14 nM |
| CCCCCOC(=O)[C@@H](NP1(=O)CO[C@@H](Cn2cnc3c(N)ncnc32)CO1)C(C)C (stereo partly drawn) [Example 16, Amyl {(5S)-5-[(6-amino-9H-purin-9-yl)methyl]-2-oxido-1,4,2-dioxaphosphinan-2-yl}-L-valinate] | 1.8 nM | 1.9 nM | 3 nM |
| CCCCCOC(=O)[C@H](Cc1ccccc1)NP1(=O)CO[C@@H](Cn2cnc3c(N)ncnc32)CO1 (stereo partly drawn) [Example 12, Amyl ((5S)-5-((6-amino-9H-purin-9-yl)methyl)-2-oxido-1,4,2-dioxaphosphinan-2-yl)-L-phenylalaninate] | 1.5 nM | 2.3 nM | 3.5 nM |
| CCCCCOC(=O)[C@H](C)NP1(=O)CO[C@@H](Cn2cnc3c(N)ncnc32)CO1 (stereo partly drawn) [Example 14, Amyl ((5S)-5-((6-amino-9H-purin-9-yl)methyl)-2-oxido-1,4,2-dioxaphosphinan-2-yl)-L-alaninate] | 10 nM | 17 nM | 20 nM |
| CCCCCOC(=O)[C@@H](NP1(=O)CO[C@@H](Cn2cnc3c(N)ncnc32)CO1)[C@@H](C)CC (stereo partly drawn) [Example 18, Amyl {(5S)-5-[(6-amino-9H-purin-9-yl)methyl]-2-oxido-1,4,2-dioxaphosphinan-2-yl}-L-isoleucinate] | 1.9 nM | 2.7 nM | 2 nM |
| CCCCCOC(=O)[C@H](CCSC)NP1(=O)CO[C@@H](Cn2cnc3c(N)ncnc32)CO1 (stereo partly drawn) [Example 13, Amyl ((5S)-5-((6-amino-9H-purin-9-yl)methyl)-2-oxido-1,4,2-dioxaphosphinan-2-yl)-L-methioninate] | 5.7 nM | 11 nM | 8.9 nM |
| O=c1[nH]c(=O)n([C@H]2C[C@H](O)[C@@H](CO)O2)cc1/C=C/Br [Brivudin, reference compound] | > 30000 nM |  |  |
